Laboratory results published in PubChem BioAssay AID504333 (National Center for Advancing Translational Sciences (NCATS), 2011).
The campaign covered roughly 360,000 compounds. About 16,000 (4.4%) were called active. The inconclusive results got no clear call from the source; some entries with a clear call stand among them for comparison. Calls come from the whole dose curve; as a rule, active = well fitted inhibition curve with a large enough effect; inconclusive = small, poorly fitted or top-dose-only effect; inactive = no such curve, though single readings can be large or run the other way. A potency beside an inconclusive call is a rough fit, not a confirmed value.

What follows are compounds tested against Bromodomain adjacent to zinc finger domain protein 2B (Homo sapiens) (UniProt Q9UIF8) (assay: qHTS Assay for Inhibitors of BAZ2B). Details: AlphaScreen BAZ2B-H3K14Ac peptide displacement; activity change, negative = inhibition: at 114 µM (top of the series).
Method in brief: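 AlphaScreen displacement: compounds (up to 110uM) incubated 30 min at room temperature with a preformed 50 nM BAZ2B/50 nM biotinylated H3K14Ac peptide complex in PBS pH 7.4 with Tween-20. Donor and acceptor beads at 10 ug/mL final added, 20 min light-protected before reading.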
% is set by controls: 0 for no effect and ±100 for the full control effect; potency is the fitted concentration of half-maximal effect; tags give direction and shape of the fitted curve.
Note: nearly all actives have a fitted effect of over 60% in size.

UniProt Q9UIF8, sequence (Q9UIF8 whole entry, looked up, the tested form may be a part): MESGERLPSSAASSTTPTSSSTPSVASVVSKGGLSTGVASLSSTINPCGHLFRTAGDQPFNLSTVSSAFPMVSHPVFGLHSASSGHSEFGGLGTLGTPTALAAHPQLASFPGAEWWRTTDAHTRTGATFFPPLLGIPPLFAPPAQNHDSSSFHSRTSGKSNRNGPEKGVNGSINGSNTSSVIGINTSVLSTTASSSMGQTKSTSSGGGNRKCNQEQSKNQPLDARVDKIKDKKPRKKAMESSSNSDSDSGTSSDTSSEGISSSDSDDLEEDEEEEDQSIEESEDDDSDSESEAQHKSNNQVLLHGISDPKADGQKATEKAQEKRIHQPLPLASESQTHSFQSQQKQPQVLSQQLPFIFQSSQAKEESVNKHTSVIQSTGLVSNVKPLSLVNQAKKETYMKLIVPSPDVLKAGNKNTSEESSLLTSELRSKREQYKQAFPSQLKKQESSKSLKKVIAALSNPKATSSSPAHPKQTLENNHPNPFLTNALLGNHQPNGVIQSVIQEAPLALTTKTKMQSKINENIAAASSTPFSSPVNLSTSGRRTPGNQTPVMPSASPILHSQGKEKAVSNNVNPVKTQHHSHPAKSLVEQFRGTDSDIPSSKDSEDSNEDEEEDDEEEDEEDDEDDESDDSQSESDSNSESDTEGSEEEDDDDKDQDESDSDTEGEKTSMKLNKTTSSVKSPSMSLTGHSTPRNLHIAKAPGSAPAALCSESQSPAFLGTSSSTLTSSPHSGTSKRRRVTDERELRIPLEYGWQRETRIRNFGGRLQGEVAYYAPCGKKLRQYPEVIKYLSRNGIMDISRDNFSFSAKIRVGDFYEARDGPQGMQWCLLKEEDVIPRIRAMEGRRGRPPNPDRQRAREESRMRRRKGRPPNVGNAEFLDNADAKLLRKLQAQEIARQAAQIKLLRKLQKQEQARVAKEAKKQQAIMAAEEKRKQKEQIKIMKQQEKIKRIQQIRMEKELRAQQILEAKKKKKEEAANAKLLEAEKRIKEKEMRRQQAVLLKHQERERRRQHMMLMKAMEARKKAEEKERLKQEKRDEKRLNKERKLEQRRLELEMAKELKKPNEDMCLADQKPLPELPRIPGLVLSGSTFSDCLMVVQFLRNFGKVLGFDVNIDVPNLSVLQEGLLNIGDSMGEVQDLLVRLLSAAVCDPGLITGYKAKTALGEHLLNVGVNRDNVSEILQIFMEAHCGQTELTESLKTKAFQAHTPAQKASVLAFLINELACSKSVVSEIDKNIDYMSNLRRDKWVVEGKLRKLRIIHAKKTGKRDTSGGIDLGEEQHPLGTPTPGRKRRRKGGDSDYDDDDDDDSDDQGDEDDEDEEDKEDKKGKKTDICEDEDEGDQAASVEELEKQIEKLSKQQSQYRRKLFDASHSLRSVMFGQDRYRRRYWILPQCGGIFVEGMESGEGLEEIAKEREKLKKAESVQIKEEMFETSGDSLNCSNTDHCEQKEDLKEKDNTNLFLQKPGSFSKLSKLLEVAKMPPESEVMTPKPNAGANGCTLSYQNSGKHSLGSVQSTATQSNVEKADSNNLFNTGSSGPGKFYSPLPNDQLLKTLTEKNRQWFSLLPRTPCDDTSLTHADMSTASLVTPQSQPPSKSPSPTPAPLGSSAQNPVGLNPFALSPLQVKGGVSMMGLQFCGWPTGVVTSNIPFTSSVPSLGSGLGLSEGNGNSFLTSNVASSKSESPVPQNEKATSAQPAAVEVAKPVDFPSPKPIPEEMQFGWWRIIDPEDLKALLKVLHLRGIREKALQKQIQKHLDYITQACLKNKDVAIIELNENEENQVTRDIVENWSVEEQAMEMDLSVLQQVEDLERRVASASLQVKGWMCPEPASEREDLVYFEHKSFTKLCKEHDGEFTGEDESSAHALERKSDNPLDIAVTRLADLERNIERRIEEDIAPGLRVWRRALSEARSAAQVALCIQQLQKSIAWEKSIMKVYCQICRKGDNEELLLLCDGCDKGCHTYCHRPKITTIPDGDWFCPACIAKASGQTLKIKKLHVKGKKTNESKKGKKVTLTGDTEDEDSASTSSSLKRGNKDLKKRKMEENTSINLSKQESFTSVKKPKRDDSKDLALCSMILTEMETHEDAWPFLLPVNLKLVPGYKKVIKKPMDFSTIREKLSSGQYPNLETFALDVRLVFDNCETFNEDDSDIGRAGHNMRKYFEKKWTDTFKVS

| Compound | activity change, negative = inhibition | Potency |
| --- | --- | --- |
| O=C(Nc1ccc2c(c1)OCO2)NC1(C(F)(F)F)Oc2ccccc2O1 | inactive: -21.7% | – |
| COc1ccc(C(C(=O)NC2CCCC2)N(C(=O)c2snc(C(N)=O)c2N)c2cccc(O)c2)cc1 (stereo not given) | – | inconclusive: 79.4 µM [inhibitor, single point] |
| CCc1ccc(NS(=O)(=O)c2cc3c4c(c2)CCN4C(=O)CC3)cc1 | inactive: 9.93% | – |
| CCOC(=O)C1=C(c2ccccc2)OC(N)=C(C#N)C1c1cccs1 (stereo not given) | – | inconclusive: 89.1 µM [inhibitor, single point] |
| Cc1c[nH]c2cccc(OCC(CNC(C)(C)C)OC(=O)c3ccccc3)c12 (stereo not given) | – | inconclusive: 44.7 µM [inhibitor, partial curve] |
| COc1ccc(Cc2nc3ccccc3n2CC(=O)N/N=C/c2ccc(C)cc2O)cc1OC | – | active: 56.2 µM |
| CCCC(=O)Nc1sc2c(c1C#N)CCCCC2 | inactive: -1.29% | – |
| CCN(CC)CCn1nc(C)nc1-c1ccccc1O | – | inconclusive: 22.4 µM [inhibitor, full curve] |
| O=c1c2[nH]c3ccccc3c2ncn1Cc1ccco1 | inactive: -6.73% | – |
| COc1ccc(NC(=O)NNC(=O)COc2ccc3cc(Br)ccc3c2)cc1OC | – | inconclusive: 3.98 µM [inhibitor, partial curve, poor fit] |
| Nc1c(S(=O)(=O)c2cccc(Cl)c2)c2nc3ccccc3nc2n1/N=C/c1ccc(O)c(O)c1 | – | inconclusive: 89.1 µM [inhibitor, single point] |
| Cc1ccsc1CN(Cc1ccco1)c1cnc(S(C)(=O)=O)nc1C(=O)Nc1ccc(Cl)cc1 | – | inconclusive: 56.2 µM [inhibitor, partial curve] |
| COC(=O)c1cc(NS(=O)(=O)c2ccc(N3CCC(C)CC3)c([N+](=O)[O-])c2)cc(C(=O)OC)c1 | – | inconclusive: 25.1 µM [inhibitor, partial curve] |
| O=[N+]([O-])c1nn(-c2ccc(Cl)cc2)n(O)c1=NCc1ccccc1 | – | inconclusive: 31.6 µM [inhibitor, partial curve] |
| CC12CCC(O)CC1=CCC1C2CCC2(C)C1CCC21CCC(=O)O1 (stereo not given) | inactive: 9.6% | – |
| COc1cccc(C2C3=C(N=c4s/c(=C\c5ccc(OCC(=O)O)cc5)c(=O)n42)c2ccccc2CC3)c1 (stereo not given) | – | active: 50.1 µM |
| Cc1ccc2c(c1)NC(=O)C(CC(=O)N(C)Cc1ccccc1)O2 (stereo not given) | inactive: -1.94% | – |
| Cc1cc(C)c2nc(N3CCCN(C(=O)c4ccco4)CC3)c(C#N)cc2c1 | – | inconclusive: 79.4 µM [inhibitor, single point] |
| Oc1ccc(Br)cc1-c1nc2cnccn2c1NC1CCCCC1 | – | inconclusive: 50.1 µM [inhibitor, partial curve] |
| CC(=O)c1ccc2c3c(ccc(O)c13)CC2 | – | active: 35.5 µM |
| O=C(CCN1C(=O)/C(=C\c2cccc(Br)c2)SC1=S)NCCCN1CCOCC1 | – | inconclusive: 56.2 µM [inhibitor, partial curve, poor fit] |
| CCC(C)NC(=O)Cn1ccc2cc(S(=O)(=O)N3CCCCCC3)ccc21 (stereo not given) | – | inconclusive: 79.4 µM [inhibitor, single point] |
| Cc1cc2cc(C(c3nnnn3Cc3ccccc3)N3CCc4ccccc43)c(=O)[nH]c2cc1C (stereo not given) | – | inconclusive: 7.94 µM [inhibitor, full curve, poor fit] |

| Compound | activity change, negative = inhibition | Potency |
| --- | --- | --- |
| COc1ccc(NCc2ccc([N+](=O)[O-])s2)cc1 | – | active: 50.1 µM |
| Cc1c(/C(O)=C2/C(=O)C(=O)N(CCN3CCOCC3)C2c2cccs2)cnn1-c1ccccc1 (stereo not given) | – | inconclusive: 79.4 µM [inhibitor, single point] |
| O=C(C1CCCN(Cc2ccccc2F)C1)N1CCCCC1 (stereo not given) | – | active: 20 µM |
| Cc1cccc(C(C)(C)C)c1OCCn1ccnc1 | – | active: 79.4 µM |
| Cc1cccc(N2CCN(CCCNc3ncnc4onc(-c5ccc(F)cc5)c34)CC2C)c1 (stereo not given) | – | inconclusive: 39.8 µM [inhibitor, single point] |
| COc1ccccc1-n1c(SCC(=O)Nc2cccc(S(N)(=O)=O)c2)nc2ccccc2c1=O | – | inconclusive: 79.4 µM [inhibitor, single point] |
| CC[N+](C)(CC)CCC(c1ccccc1)C1CCCCC1 (stereo not given) | – | active: 50.1 µM |
| COc1ccc(C(=O)c2c(C)c3cc(C)ccc3n2CC(O)CN2CCOCC2)cc1 (stereo not given) | – | inconclusive: 50.1 µM [inhibitor, partial curve] |
| C#CCOCCOCCOCCNc1nc(N2CCN(C(=O)C(Cc3cc4ccccc4[nH]3)n3cc(C(N)Cc4ccc(O)cc4)nn3)CC2)nc(N2CCN(C(=O)C(Cc3cc4ccccc4[nH]3)n3cc(C(N)Cc4ccc(O)cc4)nn3)CC2)n1 (stereo not given) | – | active: 11.2 µM |
| O=C(c1ccc(CNS(=O)(=O)c2ccccc2)cc1)N1CCN(c2ccccn2)CC1 | – | inconclusive: 3.55 µM [inhibitor, single point] |
| O=C(Nc1ccc(F)c(F)c1)c1cc(S(=O)(=O)NC2CCCC2)ccc1F | – | inconclusive: 89.1 µM [inhibitor, partial curve] |
| Cc1cccc(N(Cc2ccccc2)C(=O)Cc2ccc(S(=O)(=O)N3CCOCC3)s2)c1 | inactive: -30.7% | – |
| N#C/C(N)=C(/C#N)N=Cc1cccc(Cl)c1 | – | inconclusive: 39.8 µM [inhibitor, partial curve] |
| CCOC(=O)n1c(O)c(N=NC(N)=S)c2cc(C)ccc21 | inactive: -5.04% | – |
| O=C(Nc1cccc(Br)c1)c1cc(=O)c2ccccc2o1 | inactive: -20.4% | – |
| NC(=O)[C@@H]1CCOc2c(F)cc([N+](=O)[O-])cc2C(=O)N[C@@H](CO)C(=O)NCC(=O)N1 | inactive: -17.5% | – |
| COc1ccc(OCC(=O)NNC(=S)NC(=O)c2ccc(Br)o2)cc1 | inactive: -9.86% | – |
| CCOc1ccc2nc(NC3=NC(C)(C)C=C(C)N3)nc(C)c2c1 | – | inconclusive: 70.8 µM [inhibitor, single point] |
| CCOC(=O)c1cc(C)n(Cc2ccccc2)c1C | – | inconclusive: 79.4 µM [inhibitor, single point] |
| NCC12CC3CC(C1)CC(c1ccc(Br)cc1)(C3)C2 | inactive: 1.07% | – |
| CC(=O)O[C@H](CC(=O)O)C[N+](C)(C)C | inactive: 9.56% | – |
| O=S(=O)(Nc1ccccc1N1CCCCC1)c1ccc(Cl)s1 | inactive: -37.4% | – |
